Values joined by “and” are separate entries in the source; they are usually repeats but may differ in a detail not shown here. Equal entries are not always repeated. The whole screen tested about 16,000 compounds, of which about 40 (0.2%) were called active. About 1% were inconclusive and are not listed. The call rests on the fitted dose curve; in most records, active means well fitted activation curve with a large enough effect; inconclusive means small, poorly fitted or top-dose-only effect, or another doubt; inactive means no such curve, though single readings can be large or run the other way. This is one part of the list.
On the % scale 0 is the no-effect control and ±100 the full control effect; potency means the concentration at half of the fitted maximal effect.

Sequence of UniProt Q8WZA2 (Q8WZA2 whole entry, looked up): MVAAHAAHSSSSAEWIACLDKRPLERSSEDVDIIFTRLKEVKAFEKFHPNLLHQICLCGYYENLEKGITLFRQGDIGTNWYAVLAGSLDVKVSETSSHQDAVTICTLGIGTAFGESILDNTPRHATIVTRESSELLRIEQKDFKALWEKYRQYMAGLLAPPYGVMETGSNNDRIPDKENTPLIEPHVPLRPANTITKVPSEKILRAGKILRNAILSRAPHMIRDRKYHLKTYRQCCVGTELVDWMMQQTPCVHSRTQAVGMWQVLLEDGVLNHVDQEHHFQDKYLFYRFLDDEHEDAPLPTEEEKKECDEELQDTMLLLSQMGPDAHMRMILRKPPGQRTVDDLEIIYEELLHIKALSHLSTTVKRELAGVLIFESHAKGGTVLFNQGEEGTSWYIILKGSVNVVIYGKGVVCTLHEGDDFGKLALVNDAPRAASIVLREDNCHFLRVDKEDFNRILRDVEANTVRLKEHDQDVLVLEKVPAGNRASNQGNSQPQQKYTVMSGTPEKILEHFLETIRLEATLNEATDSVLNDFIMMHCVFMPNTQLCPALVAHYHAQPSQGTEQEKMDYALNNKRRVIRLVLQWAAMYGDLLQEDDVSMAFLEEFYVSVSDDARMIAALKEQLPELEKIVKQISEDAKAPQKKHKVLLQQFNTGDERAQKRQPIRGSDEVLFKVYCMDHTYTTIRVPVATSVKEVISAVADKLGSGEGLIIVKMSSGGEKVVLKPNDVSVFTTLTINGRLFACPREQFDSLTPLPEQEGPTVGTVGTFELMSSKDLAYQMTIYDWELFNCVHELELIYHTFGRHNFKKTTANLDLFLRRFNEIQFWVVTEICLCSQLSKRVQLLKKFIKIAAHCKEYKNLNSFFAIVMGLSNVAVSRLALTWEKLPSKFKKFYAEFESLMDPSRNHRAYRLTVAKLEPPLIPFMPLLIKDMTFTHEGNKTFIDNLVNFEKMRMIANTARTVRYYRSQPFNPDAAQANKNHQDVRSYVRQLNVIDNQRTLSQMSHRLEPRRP

For this assay, the target named is Rap guanine nucleotide exchange factor 4 (Homo sapiens) (UniProt Q8WZA2). As to the kind of experiment: Validation qHTS for agonist of cAMP-regulated guanine nucleotide exchange factor 4 (EPAC2).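 On activation: exchange makes BODIPY-GDP fluorescence drop when released from Rap1B; series mostly up to about 150 µM.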 The settings on record: EPAC2 Rap1B BODIPY-GDP exchange, fluorescence; activation: active compounds read high. In a few lines:
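Fluorescent exchange assay: 100 nM EPAC2 with 250 nM RAP1B-BODIPY-GDP and 50 uM GDP; compound added, 5 min at room temperature, then read (ex 480/em 540 nm) every 5 min for 30 min. Normalized to 6.5 mM cAMP agonist control.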
(qHTS replaces the single test concentration by a dilution series.)
As for `COc1ccccc1-c1ccc2ncnc(NCCNC(C)=O)c2c1`, the activation is inactive: -3.35%.
Regarding `Nc1ccc2cc3ccc(N)cc3nc2c1`, the Potency was active: 89.1 µM.
`NC1(C(=O)O)CC(C(=O)O)C1` (centres undefined): the activation was inactive: -1.56% and inactive: -8.7% and inactive: 0.327%.
Same read-out and setting: as for `C[C@H](CCC(=O)O)[C@H]1CC[C@H]2[C@@H]3CC[C@@H]4C[C@H](O)CC[C@]4(C)[C@H]3C[C@H](O)[C@]12C`, the figure is inactive: -7.34%.
Same read-out and setting: as for `O=c1cc(-c2ccc(O)cc2)oc2cccc(O)c12`, the figure is inactive: -9.38%.
Same read-out and setting: as for `Cc1noc(C)c1-c1nc(NCc2cccnc2)c2ccccc2n1`, the figure is inactive: -6.22%; as for `Cc1cccc(CNc2ncncc2-c2ccccc2Cl)c1`, inactive: 10.1%; as for `Cc1noc(C)c1C(=O)N1CCC2(CC1)CN(c1ccccn1)C2`, inactive: 2.39%.
Consider `CC#CCOC(=O)C1=CCCN(C)C1`, for which the activation is inactive: -7.2% and inactive: -4.07%.
As for `COc1ccc(C(=O)N2CCC3(CC2)CN(C(=O)Nc2ccccc2)C3)cc1`, the activation was inactive: -5.38%.
On to `CC(C)(C)c1onc(OCP(=O)(O)O)c1CC(N)C(=O)O` (centres undefined), for which the activation is inactive: 12.3% and inactive: -15.3%.
The same measure, in the same setting: as for `COc1ccc(CN2CCOc3ccc(CN4CCC(O)CC4)cc3C2)c(OC)c1OC`, the figure is inactive: -5.24%.
The same measure, in the same setting: as for `COc1ccc(-c2nc3cnc(Nc4cccc(OC)c4)nc3n(Cc3cccs3)c2=O)cc1`, the figure is inactive: -19.2%; as for `O=S(=O)(O)c1ccc2nc(-c3ccccc3)[nH]c2c1`, inactive: -3.31%.
As for `CC(=O)N1C[C@H](O)C[C@H]1C(=O)O`, the activation was inactive: -5.88%.
The same measure, in the same setting: as for `CN(C)C(=O)Nc1ccc(Cl)c(Cl)c1`, the figure is inactive: -20.6%.
For `Cc1nc2sccn2c1CN1CCOc2ccc(CN3C[C@@H](C)O[C@@H](C)C3)cc2C1`, the activation was inactive: -13.8%.
Same read-out and setting: as for `Cc1ccccc1C(=O)NC(C)c1nnc2n1CCN(Cc1ccccc1F)CC2` (centres undefined), the figure is inactive: 0.0011%; as for `COc1ccc2cc(C(C)C(=O)O)ccc2c1` (centres undefined), inactive: 0.614% and inactive: 0.307%; as for `COC(=O)C1N[C@@H]([C@@H](NC(=O)COc2ccccc2)C(=O)Nc2ccc(OC)cc2)SC1(C)C` (some centres undefined), inactive: -24.1%.
The same measure, in the same setting: as for `c1ccc(C(c2ccccc2)N2CCC3(CCNCC3)CC2)cc1`, the figure is inactive: 3.13%.
As to `Clc1ccccc1-c1nccc(NCc2cccs2)n1`, the activation is inactive: -21.7%.
`COC(=O)c1ccc(CN2CCC3(CCC(CNC(=O)c4ccccc4)O3)CC2)cc1` (centres undefined): the activation is inactive: -15%.
The same measure, in the same setting: as for `COC(=O)N1CCC[C@@]2(CCN(Cc3cc(C(F)(F)F)cc(C(F)(F)F)c3)C2)C1`, the figure is inactive: -0.822%; as for `COCc1c(C(=O)N2CCCC(C)C2)cnn1-c1nccc(-c2cc(C)sc2C)n1` (centres undefined), inactive: -5.58%.
On to `OC(c1cccnc1)c1ccc2c(c1)CN(Cc1ccc(-c3ccccc3Cl)o1)CCO2` (centres undefined), for which the activation is inactive: -11.2%.
On the same count and under the same terms, as for `COc1ccc(C(=O)N2CCC3(CCN(Cc4ccccc4)CC3)CC2)cc1`, the figure is inactive: -2.93%; as for `O=C(O)CCCCCCCCc1cn(CN2C(=O)c3ccccc3C2=O)nn1`, inactive: -2.05%; as for `O=C(O)C=Cc1ccc(Cn2ccnc2)cc1`, inactive: -11.7%.
On the same count and under the same terms, as for `Cc1ncc2c(c1CNS(=O)(=O)N(C)C)CCN(C(=O)c1ccccc1F)C2`, the figure is inactive: -17.2%; as for `Oc1cc2c(cc1O)[C@H](c1ccccc1)CNCC2`, inactive: -10.8%.
The same measure, in the same setting: as for `COc1ccccc1CC(Cc1nc2ccccc2[nH]1)c1nc2ccccc2[nH]1` (centres undefined), the figure is inactive: -14.8%; as for `C#C[C@]1(OC(C)=O)CCC2C3CCC4=CC(=O)CCC4C3CC[C@]21C` (some centres undefined), inactive: 9.2%.
For `C=C(Nc1ccc(OCC)cc1)Nc1ccc(OCC)cc1`, the activation was inactive: -18.8% and inactive: 1.72%.
The same measure, in the same setting: as for `O=C(c1cc(C(F)(F)F)cc(C(F)(F)F)c1)N1CCC2(CCCN(Cc3ccncc3)C2)CC1`, the figure is inactive: -33.7%; as for `Cn1c(=O)c(-c2cccs2)nc2cnc(N3CCNCC3)nc21`, inactive: 15.1%.
Regarding `Cc1cccc(-c2cnc(C)nc2C2CCCN(C(=O)c3cccc(Cn4cccn4)c3)C2)c1` (centres undefined), the activation is inactive: -14.1%.
The same measure, in the same setting: as for `Cc1c(C(=O)NCC(C)(C)N2CCOCC2)cnn1-c1ncc2c(n1)-c1ccccc1CCC2`, the figure is inactive: -9.03%.
As to `CC(=O)c1ccc(F)c(-c2cc(C)cc3c2OC(CNC(=O)c2ccnn2C)C3)c1` (centres undefined), the activation is inactive: -7.19%.
As to `COc1ccc(-c2coc3cc(OC)cc(OC)c3c2=O)cc1`, the activation was inactive: -8.25%.
On the same count and under the same terms, as for `O=c1c(O)c(-c2ccccc2)oc2cc(O)ccc12`, the figure is inactive: -19.1%; as for `COc1cc(CN2CCCC(c3nc(-c4ccncc4)ncc3-c3ccccc3)C2)ccc1O` (centres undefined), inactive: -21%; as for `NCC1O[C@H](O[C@@H]2C(O)[C@H](O[C@H]3OC(CO)C(O)C(N)C3O)[C@@H](N)C[C@H]2N)[C@@H](N)CC1O` (some centres undefined), inactive: -5.58%.
As to `CC(C)C[C@@H](CO)N1CCN(Cc2cccc(C#N)c2)CCC1=O`, the activation was inactive: -27.7%.
On the same count and under the same terms, as for `CCOC(=O)c1c[nH]c2cc(OCC(C)C)c(OCC(C)C)cc2c1=O`, the figure is inactive: -9.73%; as for `Cc1noc(C)c1-c1cncnc1N(C)Cc1ccco1`, inactive: 4.09%; as for `CC(=O)C1CCC2C3CCC4=CC(=O)CC[C@@]4(C)C3CC[C@]12C` (some centres undefined), inactive: -17.9%.
`C=C[C@]1(C)CC(=O)[C@@]2(O)[C@@]3(C)C(O)CCC(C)(C)C3C(O)C(OC(C)=O)[C@@]2(C)O1` (some centres undefined): the activation was inactive: 0.289%.
Turning to `COc1ccc(C2CNC(=O)C2)cc1OC1CCCC1` (centres undefined), the activation is inactive: 7.95% and inactive: 2.86% and inactive: -22.4%.
In the case of `CCN(CC)c1ncnc2c1ncn2[C@@H]1O[C@H](COP(=O)(O)OP(=O)(O)C(Br)(Br)P(=O)(O)O)[C@@H](O)[C@H]1O`, the activation is inactive: -23.9%.
For `CC(/C=C/c1cccc(Oc2ccc(F)cc2)c1)N(O)C(N)=O` (centres undefined), the activation is inactive: -10.1% and inactive: -37.8%.
For the molecule `O=c1c(O)c(-c2ccc(O)cc2O)oc2cc(O)cc(O)c12`, the activation is inactive: -3.99% and inactive: 21.7% and inactive: -3.76%.
On to `Cc1cnc(CNc2ccnc(-c3ccccc3C)n2)cn1`, for which the activation is inactive: -7.88%.
Same read-out and setting: as for `CC(C)c1c(C(=O)NCCN2CCOCC2)cnn1-c1nccc(-c2cccs2)n1`, the figure is inactive: -6.66%.
